Test results from PubChem BioAssay AID2100 (National Center for Advancing Translational Sciences (NCATS), 2009).
Among all 300,000 compounds or so, about 1,200 (0.4%) were called active. Inconclusive results, whose numbers are uncertain, are shown with a selection of clear calls. Calls follow the shape of the dose curve; as a rule, active = well fitted inhibition curve with a large enough effect; inconclusive = small, poorly fitted or top-dose-only effect, or another doubt; inactive = no such curve, though single readings can be large or run the other way. A potency beside an inconclusive call is a rough fit, not a confirmed value.

Biological target: Lysosomal alpha-glucosidase (Homo sapiens) (UniProt P10253)
Test: qHTS Assay for Inhibitors and Activators of Human alpha-Glucosidase Cleavage of Glycogen;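 as to activity change, negative = inhibition: 0% = full enzyme reaction and -100% = no-enzyme basal signal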
Settings: recombinant GAA, glycogen substrate, Amplex Red glucose oxidase fluorescence; activity change, negative = inhibition: at 76.4 µM (top of the series) unless noted
In short: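 Recombinant human alpha-glucosidase (4 nM final) hydrolysed bovine liver glycogen (30 ug) for 40 min at 37 C in pH 5.0 citrate/phosphate with 0.01% Tween-20. Released glucose detected by glucose oxidase/Amplex Red, Ex 573/Em 610 nm. Compounds up to 77 uM; AC50 from Hill fits.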
Potency is read from the fitted curve at half-maximal effect.

Structure (SMILES)	Potency	activity change, negative = inhibition
C=CCNC(=S)NNC(=O)c1ccc(OCCC)cc1	inconclusive: 25.1 µM [inhibitor, single point]	–
COC(=O)CCC(=O)OC1(C)C(=O)C=C2C=C(C3CC3)N(CC3CC3)C=C2C1=O (centres undefined)	inconclusive: 31.4 µM [activator, single point]	–
O=c1c2ccccc2[nH]c(=S)n1Cc1cccnc1	inactive	–
CNC(=O)c1ccc(Nc2nnc(-c3ccc(C)c(S(=O)(=O)NC(C)(C)C)c3)c3ccccc23)cc1	inactive	–
CCOC(=O)N1CCc2c(sc3c2c(=O)n(Cc2ccccc2)c(=O)n3CC(=O)Nc2c(C)cccc2C)C1	inconclusive: 11.2 µM [inhibitor, single point]	–
CNS(=O)(=O)c1cn(CC(=O)NCc2ccc(N(C)C)cc2)cc1S(=O)(=O)NC	inconclusive: 35.5 µM [inhibitor, single point]	–
O=C1Cc2cc(S(=O)(=O)N3CCN(c4cccc(C(F)(F)F)c4)CC3)ccc2N1	active: 9.47 µM	–
CN(C)c1ccc(/C=N/Nc2nc3ccccc3o2)cc1	inconclusive: 50.1 µM [inhibitor, single point]	–
O=C(Nc1cccc(-c2nc3ncccc3o2)c1)c1ccc(-c2cccc(Cl)c2Cl)o1	inactive	–
CC(=O)Nc1nonc1NC(C)=O	inactive	–
O=C(NC(NNc1ccc([N+](=O)[O-])cc1)(C(F)(F)F)C(F)(F)F)c1ccccc1Cl	inconclusive: 14.1 µM [inhibitor, partial curve]	–
CCOC(=O)c1ccc(N2C(=O)c3n[nH]c(-c4cccs4)c3C2c2ccc(O)c(OC)c2)cc1 (centres undefined)	inactive	–
O=C(CCS(=O)(=O)Cc1ccccc1)N1CCN(c2ccccc2)CC1	–	inconclusive: 37.8% [activator]
Cc1ccc(NNC(=O)c2c(F)cccc2Cl)cc1C	active: 25.1 µM	–
O=C(COc1ccccc1)NNc1nc2c(F)cc(F)cc2s1	inconclusive: 6.26 µM [inhibitor, full curve]	–
NC(=O)C1CCN(C2=C(NS(=O)(=O)c3ccc(Cl)cc3)C(=O)c3ccccc3C2=O)CC1	inconclusive: 28.2 µM [inhibitor, partial curve]	–
CCCc1cc(-c2n[nH]c(=S)n2Cc2ccccc2)cs1	inconclusive: 35.5 µM [inhibitor, single point]	–
COC(=O)CN1C(=O)N/C(=C/c2cc(Cl)c(OC)c(OC)c2)C1=O	inconclusive: 56.2 µM [inhibitor, single point]	–
O=C(NNc1nc2c(F)cc(F)cc2s1)c1ccccc1	inconclusive: 14.1 µM [inhibitor, partial curve]	–
